Source: PubChem BioAssay AID1347417 (National Center for Advancing Translational Sciences (NCATS), 2020)
Hit rate of the full screen: of about 120,000 compounds, about 5,300 (4.4%) were called active. The shares of active, inactive and inconclusive entries below differ from those in the screen. Calls follow the shape of the dose curve; as a rule, active = well fitted inhibition curve with a large enough effect; inconclusive = small, poorly fitted or top-dose-only effect; inactive = no such curve, though single readings can be large or run the other way. Where the call is inconclusive, the potency comes from a doubtful curve fit.

Assay: qHTS Primary assay for Inhibitors of Plasmodium falciparum Dd2 growth in vitro; also: nearly all actives have a fitted effect of over 65% in size;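 as to activity, negative = inhibition: plate controls were DMSO vehicle for no effect and reference drug for full effect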
Conditions: P. falciparum Dd2 growth, SYBR Green, 72 h; activity, negative = inhibition: at 28.9 µM (top of the series) unless noted; series mostly up to 28.9 µM
Method in brief: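 Infected erythrocytes (Dd2, 0.3% parasitemia, 2.5% hematocrit final) are added to compound in RPMI-1640/Albumax II medium, grown 72 h at 37C in low oxygen, then lysed with saponin/Triton-X containing SYBR Green and read by fluorescence.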
Potency is read from the fitted curve at half-maximal effect; tags tell the direction and shape of the fitted curve.

| SMILES | Potency | activity, negative = inhibition | outcome |
| --- | --- | --- | --- |
| Cc1ccc2nc(-c3ccsc3)c(Nc3ccccc3C)n2c1 | inconclusive: 17.8 µM [inhibitor, single point] |  |  |
| CSCC(=O)N[C@H]1CCN2C(=O)c3cc(-c4ccccc4F)ccc3NC(=O)[C@H]12 |  | inactive: -21.2% [at 44.1 µM] |  |
| CSc1cccc(NC(=O)N[C@H]2CCN(C(=O)CC(C)(C)C)[C@@H]2C(=O)N[C@H](Cc2ccccc2)C(N)=O)c1 | inconclusive: 11.2 µM [inhibitor, single point] |  |  |
| CC(=O)c1cccc(NC(=O)O[C@@H]2CO[C@H]3[C@@H]2OC[C@@H]3NC(=S)Nc2cccc3ccccc23)c1 |  | inactive: -15.8% |  |
| O=C(NCCc1ccccc1)N1CCC(N2C(=O)C3(CCCCC3)C2c2ccncc2)CC1 (stereo unspecified) | inconclusive: 4.47 µM [inhibitor, partial curve] |  |  |
| CC(C)(C)c1cc(C(C)(C)C)c2oc(=O)c(-c3nc4ccccc4[nH]3)cc2c1 | inconclusive: 11.2 µM [inhibitor, single point] |  |  |
| O=C(CSc1nc2ccccc2c2nc(-c3ccccc3)nn12)Nc1ccc(Br)cc1 |  |  | inactive |
| CCn1cc(C(=O)N2CCCC(C(=O)Nc3cccc(-c4cc5ccccc5[nH]4)c3)C2)cn1 (stereo unspecified) |  |  | inactive |
| COC(=O)[C@H]1CN(C(=O)N2CCOCC2)CCN1C(=O)c1cccnc1 |  | inactive: -11.3% [at 44.1 µM] |  |
| COc1cccc(NC(=O)[C@@H]2C[C@H](c3cccc(C(F)(F)F)c3)N(Cc3cnn(C)c3)C2)c1 | inconclusive: 0.355 µM [inhibitor, full curve, poor fit] |  |  |
| Cc1ccc(C(=O)N2CCC(Oc3ccc(NC(=O)c4ccccc4)cn3)C2)cc1 (stereo unspecified) | inconclusive: 1.12 µM [inhibitor, partial curve, poor fit] |  |  |
| COCCC(=O)N1CCCC(C(=O)N2CCN(c3ccccn3)CC2)CCNC(=O)CC1 (stereo unspecified) |  | inactive: 5.91% |  |
| CC(C)CNc1ccc2c(n1)C(C)(C(=O)NCCc1cnc[nH]1)CN(Cc1ccccc1)C2 (stereo unspecified) | inconclusive: 0.891 µM [inhibitor, partial curve] |  |  |
| Cc1ccc(-c2noc([C@@H]3C[C@H](NC(=O)CC(C)(C)C)CN3C)n2)cc1 | inconclusive: 31.6 µM [inhibitor, single point] |  |  |
| Cc1nc(C)c(C(=O)N2C[C@@H](Oc3cccnc3)C[C@H]2C(=O)NC2CC2)s1 |  | inactive: 11.9% |  |
| O=C(N[C@@H]1CN(C2CCOCC2)CC[C@@H]1CO)c1ccccc1 | inconclusive: 5.01 µM [inhibitor, partial curve, poor fit] |  |  |
| CN(C)c1ccc(C(CNC(=O)COc2ccc(Cl)cc2)N2CCOCC2)cc1 (stereo unspecified) | inconclusive: 15.8 µM [inhibitor, single point] |  |  |
| CCC(CC)c1cc([C@H]2CN3CC[C@H]2C[C@@H]3CNC(=O)C2CCC2)nc(-c2ccncc2)n1 | inconclusive: 3.98 µM [inhibitor, single point] |  |  |
| Cc1ccc(Cl)cc1N1CCN(C(=O)c2cn(C3CCCCC3)c(=O)c3c2c2ccccc2n3C)CC1 | inconclusive: 17.8 µM [inhibitor, single point] |  |  |
| CN1CC2(CCN(Cc3ccccc3C#N)CC2)CC1C(=O)N1CCOCC1 (stereo unspecified) | inconclusive: 20 µM [inhibitor, single point] |  |  |
| CCC1=C(C(=O)OC)C(c2ccccc2C)N2C(CC(=O)N3CCCC3)=CSC2=N1 (stereo unspecified) |  | inactive: -10.8% |  |

| SMILES | Potency | activity, negative = inhibition | outcome |
| --- | --- | --- | --- |
| COc1ccc(CC(=O)NC2CCN(c3cc(-c4ccccc4)[nH]n3)CC2)cc1 | inconclusive: 1.58 µM [inhibitor, partial curve, poor fit] |  |  |
| COc1ccccc1-c1cnc(Nc2cccnc2OC)c2c1CCO2 | inconclusive: 31.6 µM [inhibitor, single point] |  |  |
| CCc1c(C)cc(C(=O)N[C@@H]2[C@@H](Cc3ccccc3)[C@H]3OCC[C@@H]23)c(=O)n1C |  | inactive: -16.3% |  |
| COc1ccc(-n2ncc(C(=O)NCc3ccccc3)c2C2CCN(C(=O)OC(C)(C)C)CC2)cc1 | inconclusive: 17.8 µM [inhibitor, single point] |  |  |
| c1ccc(-c2noc(-c3ccn4c(CN5CCc6ccccc6C5)nnc4c3)n2)cc1 |  | inactive: -12.5% |  |
| Cn1cnnc1CC1CCN(C(=O)Nc2ccc3c(c2)OCCO3)C1 (stereo unspecified) |  |  | inactive |
| Cc1ccc(C2Cn3nnc(C(=O)N4CCN(C(=O)c5ccoc5)CC4)c3CO2)cc1 (stereo unspecified) | inconclusive: 11.2 µM [inhibitor, single point] |  |  |
| O=C(c1cccnc1)N1C[C@@H]2OCC(=O)N(CC3CC3)[C@@H]2C1 |  | inactive: 3.9% [at 44.1 µM] |  |
| CC(C)CNC(=O)N1CCCCCCNC(=O)[C@@H]2CCC[C@@H]21 |  | inconclusive: -30.6% [inhibitor] |  |
| CN1CC(=O)N(C2CCNC2)Cc2c(NC3CCCCCC3)ncnc21 (stereo unspecified) | inconclusive: 12.6 µM [inhibitor, single point] |  |  |
| CCCN(C(=O)c1cc2c(s1)-c1ccccc1SC2)c1ccccc1F | inconclusive: 12.6 µM [inhibitor, single point] |  |  |
| CC1(c2ccc(Cl)cc2)CC(C)(C)N(C(=O)c2ccccc2)c2ccccc21 (stereo unspecified) | inconclusive: 17.8 µM [inhibitor, single point] |  |  |
| CC(C)n1cncc1CN1CCC2(CCCO2)CCC1=O (stereo unspecified) |  | inactive: 2.52% |  |
| c1ccc(CN2CCC(N3CC(OCC4CC4)C34CCCCC4)CC2)nc1 (stereo unspecified) | inconclusive: 2.24 µM [inhibitor, partial curve, poor fit] |  |  |
| COc1ccc(CN2CCCC3(C2)C(=NC2CCCC2)NC(=O)N3c2cccc(OC)c2)cc1 (stereo unspecified) | inconclusive: 17.8 µM [inhibitor, single point] |  |  |
| COCCNC(=O)c1ccc(OC2CCN(Cc3cccc(SC)c3)CC2)c(Cl)c1 | inconclusive: 2.82 µM [inhibitor, partial curve, poor fit] |  |  |
| COc1ccc(CCNC(=O)CCn2c(=O)c3cccn3c3ccc(F)cc32)c(OC)c1OC | inconclusive: 17.8 µM [inhibitor, single point] |  |  |
| O=C(c1cc(F)cc(F)c1)N1CC(c2nc(CCc3ccccc3)no2)C1 |  | inactive: -13.7% |  |
| Cc1ccc(-n2c(C3CCN(C(=O)CCc4ccccc4)CC3)n[nH]c2=O)cc1 | inconclusive: 17.8 µM [inhibitor, single point] |  |  |
| O=C(c1cc(-c2ccccc2)n[nH]1)N1CCC2(CC1)CC(OCC1CC1)CCO2 (stereo unspecified) | inconclusive: 2.24 µM [inhibitor, full curve, poor fit] |  |  |
